# Where “and” joins values, the source holds several entries; their conditions need not be identical. Equal entries are not always repeated. The campaign covered roughly 410,000 compounds. About 7,200 (1.8%) were called active. Inconclusive results, whose numbers are uncertain, are shown with a selection of clear calls. Calls come from the whole dose curve; as a rule, active = well fitted activation curve with a large enough effect; inconclusive = small, poorly fitted or top-dose-only effect, or another doubt; inactive = no such curve, though single readings can be large or run the other way. Where the call is inconclusive, the potency comes from a doubtful curve fit.
# Assay: qHTS of TDP-43 Inhibitors; note: nearly all actives have a fitted effect of over 50% in size; for growth rescue (activation): % of control where 0% means no effect
# Conditions: TDP-43 expressing yeast growth rescue, BacTiter-Glo, 24 h; growth rescue (activation): at 46.1 µM (top of the series) unless noted
# In short: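 Galactose-induced TDP-43 yeast, OD600=0.02, compound pinned; 24 hr, 30 deg C; BacTiter-Glo luminescence for growth. Inhibitors of TDP-43 toxicity read as activators.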
# Potency is the fitted concentration of half-maximal effect; tags give direction and shape of the fitted curve.
SMILES,Potency,growth rescue (activation)
COc1ccc(-c2coc3c(C(=O)NCC4CC4)cccc23)c(C)c1,"inconclusive: 35.5 µM [activator, single point]",
COCCNC(=O)C1CCN(Cc2cc3ccccc3n2Cc2ccc(C)cc2)CC1,,inactive: 20.8%
CCOc1ccc(OCCNC(=O)c2oc3ccccc3c2COC)cc1,"inconclusive: 35.5 µM [activator, partial curve, poor fit]",
CN(CCOc1ccc(Br)cc1)C(=O)CNC(=O)c1ccc2ccccc2c1,"inconclusive: 31.6 µM [activator, single point]",
CCOC(=O)c1cccc(NC(=O)Cn2c(=O)c3cccn3c3ccccc32)c1,,inactive: -13.8%
CC(=O)c1cccc(NC(=S)NC(=O)c2ccccc2)c1,"inconclusive: 20 µM [activator, partial curve]",
COc1ccc(-c2nc(CCl)cs2)cc1,,inactive: 9.01%
COc1ccc(C(=O)/C=C/C(=O)N(CC(=O)NCCC(C)C)Cc2cccs2)c(O)c1,"inconclusive: 20 µM [activator, single point]",
COc1ccc(OC)c(-c2cc(C3CCN(c4ncccc4[N+](=O)[O-])CC3)[nH]n2)c1,"inconclusive: 28.2 µM [activator, single point]",
COc1ccccc1CNC(=O)c1ccc2[nH]c(C)c(C)c2c1,"inconclusive: 35.5 µM [activator, single point]",
CSc1ncc(Cl)c(C(=O)Nc2cccc(Cl)c2)n1,active: 22.4 µM,
COc1cc(C(=O)N2CCN(c3ccc(C)cc3C)CC2)cc(OC)c1OC,"inconclusive: 14.1 µM [activator, single point]",
c1ccc2c(c1)Cc1ccccc1O2,,inactive: -5.43%
CCOC(=O)c1c(/N=C/C2=C(O)CC(C)(C)CC2=O)sc(C)c1C,"inconclusive: 10 µM [activator, partial curve]",
CCN(CC)S(=O)(=O)c1ccc(C(=O)NCCSc2c(-c3ccc(F)cc3)[nH]c3ccccc23)cc1,,inactive: 29.2%
COCCNC(=O)c1c[nH]c2ccc(S(=O)(=O)N(C)c3ccc(C)c(C)c3)cc2c1=O,,inactive: -11.4%
O=Nc1c(O)c2ccccc2c2ccccc12,,inconclusive: -87% [activator]
Cc1ccc2c(CC(=O)OCn3nnc4ccccc4c3=O)coc2c1,"inconclusive: 35.5 µM [activator, single point]",
Nn1c(Cc2ccccc2)nc2cc(Cl)ccc2c1=O,"inconclusive: 12.6 µM [activator, partial curve]",
O=C(COC(=O)c1ncc(Cl)c(Cl)c1Cl)NCCc1ccccc1,,inconclusive: 36.3% [activator]
O=C(Cn1ncc2c1-c1ccccc1OC2)N1CCN(c2ccccc2)CC1,"inconclusive: 22.4 µM [activator, partial curve]",
CCOC(=O)C1CCN(C(=O)C2CCCN(S(=O)(=O)c3ccc(OCC)c(Cl)c3)C2)CC1 (stereo unspecified),"inconclusive: 5.62 µM [activator, single point]",
O=[N+]([O-])c1ccccc1OCc1nc(-c2cccs2)no1,active: 12.6 µM,
COc1ccc(N(Cc2cc3cc(OC)ccc3[nH]c2=O)C(=O)C2CCCO2)cc1 (stereo unspecified),"inconclusive: 35.5 µM [activator, single point]",

SMILES,Potency,growth rescue (activation)
COc1ccc2c(c1)c(=O)c(S(=O)(=O)c1ccc(F)cc1)cn2Cc1ccccc1Cl,,inactive: -16.5%
Cc1cc(Br)ccc1NC(=O)CN(C)C(=O)C1CCN(c2ncnc3sc(C)c(C)c23)CC1,"inconclusive: 17.8 µM [activator, single point]",
O=C(CCCN1C(=O)/C(=C/c2ccccc2Cl)SC1=S)N1CCCC1,"inconclusive: 25.1 µM [activator, single point]",
COc1ccccc1N1CCN(C(=O)c2sc3nc(-c4ccc(F)cc4)cn3c2C)CC1,active: 11.2 µM,
CC1CCC/C(=C\Nc2ccc3c(c2)OCO3)C1=O (stereo unspecified),,inactive: -10%
CCOc1nc(Nc2ccccc2)nc(OCC)n1,"inconclusive: 10 µM [activator, partial curve]",
COc1ccc(-c2sc3ccc(OC)cc3c2C#Cc2ccccn2)cc1,"inconclusive: 11.2 µM [activator, partial curve]",
O=C(c1c(F)cccc1F)N1CCN(c2cccc(C(F)(F)F)c2)CC1,active: 15.8 µM,
O=c1[nH]ncc2c3ccccc3n(Cc3cccc(Cl)c3)c12,,inactive: 2.64%
CCOC(=O)c1c(C)sc2c1N(C(C)=O)c1cc(Cl)ccc1S2,"inconclusive: 14.1 µM [activator, single point]",
COc1ccc(C(=O)O/N=C(\N)c2ccc(Br)cc2)cc1,active: 2.51 µM,
O=C(Nc1ccccc1F)c1csc([C@@H]2C[C@H](O)[C@@H](CO)O2)n1,"inconclusive: 31.6 µM [activator, single point]",
CCn1c(=O)cc(OCC(=O)N2CCN(c3ccc(C)cc3)C(C)C2)c2ccccc21 (stereo unspecified),"inconclusive: 35.5 µM [activator, single point]",
Cc1cc(Cl)ccc1OCC(=O)N(Cc1sccc1C)C1CCS(=O)(=O)C1 (stereo unspecified),,inactive: 26.8%
Cc1ccc2c(c1)c1c(n2CC2COC(C)(C)O2)C(=O)CCC1 (stereo unspecified),active: 12.6 µM,
Cc1ccc(S(=O)(=O)CCC(=O)OCc2nnc(-c3ccccc3)o2)cc1,"inconclusive: 35.5 µM [activator, single point]",
CC(=O)C[C@H](O)CC(=O)[C@H]1OC(=O)CC/C=C\Cc2ccccc21,"inconclusive: 3.16 µM [activator, partial curve]",
O=C(NNC(=O)c1cc(Br)c(Br)s1)c1ccncc1,"inconclusive: 35.5 µM [activator, partial curve, poor fit]",
Brc1ccc(N/N=C(/N=Nc2nn[nH]n2)c2ccccc2)cc1,"inconclusive: 17.8 µM [activator, single point]",
COc1cccc(-c2cccc(-c3nc(C(=O)NCc4ccc(Oc5ccccc5)cc4)cc4c3[C@H](CCO)N(S(=O)C(C)(C)C)C4)c2)c1 (stereo partly specified),"inconclusive: 35.5 µM [activator, partial curve, poor fit]",
COc1cc(C(O)c2nc(-c3cccc(F)c3)cs2)ccc1F (stereo unspecified),active: 15.8 µM,
COC1CCCN(C(=O)c2ccc3nc(Cc4cccc(Cl)c4)oc3c2)C1 (stereo unspecified),"inconclusive: 14.1 µM [activator, single point]",
CCc1cc(SC#N)cc(CC)c1NC(=O)CCl,"inconclusive: 20 µM [activator, single point]",
Cc1cccc(CS(=O)(=O)c2ncc(Cl)c(C(=O)Nc3nnc(C(C)C)s3)n2)c1,"inactive and inconclusive: 12.6 µM [activator, single point]",

SMILES,Potency,growth rescue (activation)
O=C1NCCc2onc(-c3ccc(Br)cc3)c21,active: 35.5 µM,
CCN(CC(=O)Nc1cc(Cl)ccc1OC)CC(=O)NC1CCS(=O)(=O)C1 (stereo unspecified),,inactive: 20.9%
O=C(CCn1c(=O)c2cccn2c2cccnc21)N1CCN(c2cccc(C(F)(F)F)c2)CC1,active: 25.1 µM,
Cc1cccc(C)c1OCCOC(=O)c1n[nH]c2ccccc12,,inactive: -11.8% [at 1.82 µM]
O=C(CNC(=O)c1n[nH]c2ccccc12)Nc1ccc(F)c(F)c1F,"inconclusive: 11.2 µM [activator, partial curve]",
COc1ccc(OCC(=O)NC(=S)NNC(=O)COc2ccc(Br)cc2Cl)cc1,"inconclusive: 25.1 µM [activator, single point]",
CCOC(=O)c1c(-c2ccccc2)csc1NC(=O)CSc1nncs1,"inconclusive: 10 µM [activator, partial curve]",
C(=N\NC1=Nc2cccc3cccc1c23)/c1ccccn1,active: 20 µM,
O=C(NC(=S)Nc1cccc(Cl)c1Cl)C1CC1,"inconclusive: 2 µM [activator, full curve]",
O=C(Nc1c(C(=O)N2CCN(c3ccccc3F)CC2)oc2ccccc12)c1cccc(F)c1,,inactive: 9.41%
COc1ccc(C2=CC(c3cc(Br)ccc3F)n3c(nc4ccccc43)N2)cc1 (stereo unspecified),"inconclusive: 0.891 µM [activator, partial curve]",
CC1=C(C(=O)N(C)C)CC(CC(=O)NC2CCCC2)C(=O)N1Cc1ccc(F)cc1 (stereo unspecified),"inconclusive: 0.631 µM [activator, full curve, poor fit]",
Cc1ccccc1OCC(=O)Nc1ccc2oc(=O)ccc2c1,"inconclusive: 2.24 µM [activator, full curve]",
COc1ccc2c(n1)Sc1nc3ccccc3nc1N2,,inconclusive: -42% [activator]
O=c1nc(SCc2cccc(C(F)(F)F)c2)nc2ccccn12,"inconclusive: 3.55 µM [activator, single point]",
COc1ccc(NC(=O)C2=C(C)C(=O)OC23CCC(C)CC3)c(OC)c1 (stereo unspecified),active: 20 µM,
COc1cc(/C=C2\SC(=S)N(CCC(=O)Nc3ccccn3)C2=O)cc(OC)c1OC,"inconclusive: 6.31 µM [activator, partial curve]",
Cc1ccccc1CSCCNC(=O)CCSc1ccccc1,active: 15.8 µM,
Cc1ccc(-n2ncc3c(NCCCN4CCOCC4)ncnc32)cc1C,,inactive: -1.9%
Cc1ccc(CC(=O)Nc2cccc(C)n2)cc1,,inactive: 1.47%
Cc1cccc(N2CCN(C(=O)CSc3ccsc3[N+](=O)[O-])CC2C)c1 (stereo unspecified),active: 17.8 µM,
Cc1ccc(S(=O)(=O)N(C)CC(=O)NNC(=O)CCC(=O)c2ccc(F)cc2)cc1,"inconclusive: 6.31 µM [activator, partial curve]",
O=C(O)C1(C(=O)O)CCC2(CCCCC2)CC1,"inconclusive: 25.1 µM [activator, single point]",
